# Sequences with one replicate were seen in a single cluster, so their values are uncertain.
# System: ATP
# Experiment: switch fluorescence ratio, 500 uM ATP over buffer (Cy3 cluster intensity, sum of 5 cycles each) (fold (ratio)); higher = stronger signal-on switching upon ATP binding; sequences stand for … in TCGTCGGCAGCGTCAGATGTGTATAAGAGACAGTTTTTTTTTTTTTTTTTTTTTTTTT…TC
# Details: aptamer strand: ATP DNA aptamer (quencher-CACCTGGGGGAGTATTGCGGAGGAAGG + anchor), 100 nM annealed; ATP concentration: 500 uM; one replicate
# Summary of the method: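 Per cluster, summed Cy3 intensity from the target cycles was divided by that from the buffer cycles to give the fluorescence ratio, then averaged per switch-domain sequence. Clusters outside 100-1000 RFU were excluded. The Cy3-labelled switching-strand clusters, on a modified Illumina MiSeq flow-cell, were annealed to 100 nM quencher-labelled ATP aptamer and imaged in selection buffer, then after 15 min with 500 uM ATP at 22 °C, for five cycles with NaOH stripping and re-annealing between them.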
# 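Note: ATP exposure 15 min at 22 °C before imaging.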
row,Sequence,switch fluorescence ratio
1,GATTTCTATA,1.01
2,ACTTGTCAAT,1.06
3,TCGTCTGCA,1.72
4,AATTGGAGAT,1.03
5,TGGAACATCT,0.963
6,TTCGCTGACC,1.32
7,TGGATTTATA,1.02
8,ATCTTAGAAA,0.895
9,GGTTGCATCT,1.01
10,CTGATTGACT,1.01
11,GCTCAGACTG,0.893
12,GCCCCTTTGG,1.18
13,TGACCGGTTG,0.989
14,ATTACGTTGT,0.998
15,TGATGTATTC,0.975
16,GCTCCTTATC,1.25
17,GTGTCAAGGA,0.978
18,TCGCCCATGC,1.74
19,GGTGTGCACA,1.06
20,CTCAAACTGT,0.89
21,TTTTGCGA,1.02
22,TTGTTTACAG,0.921
23,ACTTCCGTAA,1.54

row,Sequence,switch fluorescence ratio
1,CCTCAGACTT,1.29
2,TTGGTAACCG,1
3,GGAAAGGGCA,1
4,TGGCAAAACG,1.01
5,GTTCATAGTA,1.04
6,GTGTACTTGC,0.987
7,GGGTGAGTCC,0.988
8,ACCGATAGCA,1.19
9,ATCGACGGCG,1.05
10,GGGACCTCGA,0.989
11,AGTCTACTGT,1.02
12,GACTAAGGAT,0.97
13,GCGCTGGGG,1.02
14,GATATTTGTT,1.01
15,CGGCTTAACA,0.999
16,GATGAAAACG,1
17,AGTGAGATTG,0.991
18,ACTGTGAGGA,0.999
19,TATCAGAATT,1.02
20,GATGTCAATA,1.05
21,TTTTAGTCCC,0.984
22,CACTGAGTT,1.07
23,GGATTTACAT,1.03

row,Sequence,switch fluorescence ratio
1,AAGGAAATCG,0.981
2,TCTATCGCCT,1.06
3,GGAATTAGCC,0.991
4,GATGTTAGGC,0.962
5,CGTGTAGCA,1.02
6,CGTGCCATTA,0.981
7,AAGCTCATGG,0.967
8,GTTCCTCTAG,1.19
9,GAGTGTGGGT,0.982
10,GAAGTGCTGG,1.03
11,TAACGCATGA,1.27
12,TTAGGAGCAG,0.973
13,ACGATGTGAC,1.11
14,GAATGATCCT,1.04
15,ATCAGCGTAT,1.01
16,ATGTCTAGGG,0.951
17,CCGACTAGGT,1.03
18,ACAGTCTCTA,0.982
19,CCTATTGTCG,0.985
20,GTCTAAAGCT,1
21,TCGGTTTCAT,1.01
22,ACTGTATAAT,1.19
23,TAACACTATA,1.02

row,Sequence,switch fluorescence ratio
1,GCGAGAGTA,0.954
2,TTCCTTGACG,0.975
3,GCGGGAAAAT,0.834
4,TAACGGTCTC,0.989
5,TATCCTAGAG,0.988
6,AACCGGGTTA,0.977
7,GGGTCTGAAA,1.05
8,ATATTCCAAA,0.987
9,TGGATGCCGT,1
10,AGGATAGTTC,1.01
11,CGTGGGCCT,1.03
12,TGTACTCGCG,1
13,GCCCCCGAAG,1.13
14,CCCCTTTTTT,1.26
15,CGCCGCACA,3.61
16,TAGCGAATTT,1.03
17,TAATTGTTAG,0.976
18,TCTGGGGAGC,0.93
19,TAACTCTACG,1.2
20,AGCTCCTTGA,0.987
21,TGTAATACCT,1.03
22,TCGGCTGATA,0.998
23,CCTGACACTG,1.06

row,Sequence,switch fluorescence ratio
1,TGATAGTAGC,1.03
2,ATTATACATG,0.972
3,TTGCGCCTCT,1.02
4,AAGGTGGGA,1.02
5,CCACATGAGT,0.982
6,ACTGGGCAAG,1.05
7,CGGTAGGGA,0.964
8,TCTAGGCTAA,1
9,TCCATAGTGG,1.03
10,GTTTGAGACA,1
11,TACAGGGTGT,1.07
12,GGAAACCCGA,1.13
13,ACATGCTGC,0.975
14,GGAACATGGA,1
15,ACGAGAGGGA,1.08
16,ATATTATCCG,0.99
17,CCGGGCTCTT,1.07
18,AAAGGACTGG,1.02
19,CTATTGAGAC,1.04
20,AGTAGTTTAC,0.998
21,CCATTTACAA,1.02
22,TGTTTACGC,1.02
23,AGATGCATCT,0.973

row,Sequence,switch fluorescence ratio
1,TCGTGCAGC,1.03
2,CTTCATGCAA,5.26
3,CAGGTATCCG,1.05
4,AGGGGTGGCT,1.03
5,GTTTCAGAG,0.991
6,AGTATATCTC,1.04
7,GCAGTGAGTG,0.967
8,GTCATACACT,1.02
9,GGTGTTCAAT,1.01
10,ATGCATAAGA,0.993
11,GAAGCTATAA,3.68
12,GCCCACCGTT,1.04
13,GGTCTTAATC,0.98
14,TGAATAGACA,0.991
15,GATCTTAGAA,0.979
16,AATTCGATC,0.998
17,CGACACTGCA,1.19
18,AGCCTCACGG,1.03
19,GGCGGGTGGC,0.98
20,TTATAGTCAC,1.01
21,GTTCATAGCA,1.02
22,CTAAATTTTT,1.03
23,GCCGGAAATA,1.09

row,Sequence,switch fluorescence ratio
1,GGTGGGTCAG,1.02
2,TGAGTATCAG,0.984
3,CCCCGATCTT,1.01
4,GAGACTCATA,1.05
5,GGTGATAAGT,0.951
6,AAGCGAAAAG,1.02
7,TCAGGTGGTT,1.15
8,AACTGCCTCA,1.06
9,TTGGCATCGT,0.993
10,GTTGTTAAAG,0.995
11,ATTGCTACTC,1.18
12,CTCAAATAGG,1.01
13,GATAACACC,1.08
14,ATTCCCAGTT,0.991
15,GAAGGGGGCG,1.03
16,ATCGTATGGG,0.957
17,CGTCGAGCGG,1.02
18,CTGGAGATTG,1.02
19,GCCGCAGTGT,1.57

# From the supplement of paper PMC10126150
